Data: paper PMC4022593
These are yes or no findings as the source states them, for the method shown. For some of these results: In cells and extracts the contact can be indirect. Some entries that bind do so weakly or less than the wild type. Sequences can lack the tags named with a protein. Each block holds one molecule with its values, some of them ahead of it.

The chains behind the UniProt entries cited, without tags or fusion partners. Where a name states a change or a piece, a line headed by the entry shows the natural chain unless it says otherwise. A line that says so, or that is headed by a name, gives the form on record, which may keep a tag or linker. Residues count along the entry.
UniProt Q9FPR3: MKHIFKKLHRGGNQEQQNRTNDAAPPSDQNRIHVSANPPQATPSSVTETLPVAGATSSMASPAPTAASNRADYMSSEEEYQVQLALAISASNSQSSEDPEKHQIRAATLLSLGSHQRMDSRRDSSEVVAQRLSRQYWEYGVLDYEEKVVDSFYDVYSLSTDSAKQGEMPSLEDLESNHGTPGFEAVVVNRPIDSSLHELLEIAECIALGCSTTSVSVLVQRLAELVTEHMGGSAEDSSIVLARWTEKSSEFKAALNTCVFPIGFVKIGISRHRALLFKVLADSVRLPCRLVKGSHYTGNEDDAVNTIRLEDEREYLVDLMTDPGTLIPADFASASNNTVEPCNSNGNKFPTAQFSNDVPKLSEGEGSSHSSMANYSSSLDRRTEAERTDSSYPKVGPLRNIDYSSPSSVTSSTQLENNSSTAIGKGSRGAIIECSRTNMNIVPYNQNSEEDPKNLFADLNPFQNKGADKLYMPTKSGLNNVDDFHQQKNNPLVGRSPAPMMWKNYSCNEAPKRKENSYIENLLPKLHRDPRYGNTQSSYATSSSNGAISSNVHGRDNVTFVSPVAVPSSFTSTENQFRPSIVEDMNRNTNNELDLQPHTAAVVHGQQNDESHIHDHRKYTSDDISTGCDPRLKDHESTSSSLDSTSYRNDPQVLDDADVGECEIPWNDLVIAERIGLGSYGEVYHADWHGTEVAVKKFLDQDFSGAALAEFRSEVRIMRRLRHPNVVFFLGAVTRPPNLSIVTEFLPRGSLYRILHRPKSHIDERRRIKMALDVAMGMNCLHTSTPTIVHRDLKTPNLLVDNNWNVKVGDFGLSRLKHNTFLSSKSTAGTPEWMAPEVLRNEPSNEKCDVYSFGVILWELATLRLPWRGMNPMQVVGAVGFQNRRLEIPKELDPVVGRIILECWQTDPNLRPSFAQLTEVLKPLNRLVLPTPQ
EDR1 N-terminal domain fused to the Gal4 DNA binding domain: residues 1-657 of Q9FPR3
UniProt Q39026: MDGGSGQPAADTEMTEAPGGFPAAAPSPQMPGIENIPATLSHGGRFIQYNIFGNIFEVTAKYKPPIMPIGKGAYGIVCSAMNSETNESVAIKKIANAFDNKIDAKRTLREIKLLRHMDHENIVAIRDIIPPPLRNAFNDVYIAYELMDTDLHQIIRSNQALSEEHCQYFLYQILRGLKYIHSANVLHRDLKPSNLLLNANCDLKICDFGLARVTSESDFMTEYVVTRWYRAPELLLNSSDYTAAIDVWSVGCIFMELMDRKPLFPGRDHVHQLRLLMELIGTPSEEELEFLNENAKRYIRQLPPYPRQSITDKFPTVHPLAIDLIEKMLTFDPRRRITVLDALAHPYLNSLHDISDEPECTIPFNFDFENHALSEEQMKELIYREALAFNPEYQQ

Key:
[1] = target: T1, HA tagged MKK4 expressed in N. benthamiana (Arabidopsis thaliana) (UniProt O80397); assay: co-IP; transient co-expression in N. benthamiana, proteins extracted after 48 h; immunoprecipitation by anti-HA antibody and Protein G, immunoblot with anti-Myc and anti-HA
T1 sequence: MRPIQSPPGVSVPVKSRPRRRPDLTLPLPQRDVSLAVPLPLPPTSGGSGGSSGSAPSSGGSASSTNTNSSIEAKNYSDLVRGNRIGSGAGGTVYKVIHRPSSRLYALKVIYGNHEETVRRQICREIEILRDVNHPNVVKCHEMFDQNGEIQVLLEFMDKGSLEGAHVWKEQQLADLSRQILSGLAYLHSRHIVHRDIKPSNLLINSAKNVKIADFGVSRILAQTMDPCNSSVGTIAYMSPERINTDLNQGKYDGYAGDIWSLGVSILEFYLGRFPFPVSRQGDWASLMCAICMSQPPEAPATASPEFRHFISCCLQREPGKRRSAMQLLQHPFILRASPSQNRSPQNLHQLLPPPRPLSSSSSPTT

[2] = target: T2, HA tagged MKK5 expressed in N. benthamiana (Arabidopsis thaliana) (UniProt Q8RXG3); assay: as above
T2 sequence: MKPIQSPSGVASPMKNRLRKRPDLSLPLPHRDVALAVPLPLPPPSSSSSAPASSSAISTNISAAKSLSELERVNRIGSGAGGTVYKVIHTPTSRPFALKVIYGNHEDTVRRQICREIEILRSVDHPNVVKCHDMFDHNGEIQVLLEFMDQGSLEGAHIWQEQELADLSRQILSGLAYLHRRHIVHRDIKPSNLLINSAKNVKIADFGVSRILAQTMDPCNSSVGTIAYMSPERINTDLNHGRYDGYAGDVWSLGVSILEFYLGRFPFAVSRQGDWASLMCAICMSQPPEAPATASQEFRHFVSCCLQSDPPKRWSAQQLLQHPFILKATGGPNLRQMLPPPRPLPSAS

[3] = target: EDR1 full length fused to the Gal4 DNA binding domain (Arabidopsis thaliana) (UniProt Q9FPR3); assay: two-hybrid; EDR1 constructs on the Gal4 DNA binding domain (pGBKT-7), kinases on the Gal4 transactivation domain (pGADT-7), cotransformed into yeast AH109; growth on SD lacking Ade, His, Leu and Trp, 2 days
[4] = target: T3, HA-MKK5 in transgenic Arabidopsis (Arabidopsis thaliana) (UniProt Q8RXG3); assay: co-IP; extracts of EDR1-Flag/HA-MKK5 double transgenic Arabidopsis plants (EDR1-Flag plants as control); immunoprecipitation by HA antibody and Protein G, immunoblot with anti-Flag or anti-HA
T3 sequence: T2 sequence

[5] = target: EDR1 N-terminal domain fused to the Gal4 DNA binding domain (Arabidopsis thaliana) (UniProt Q9FPR3); assay: two-hybrid; EDR1 constructs on the Gal4 DNA binding domain (pGBKT-7), kinases on the Gal4 transactivation domain (pGADT-7), cotransformed into yeast AH109; growth on SD lacking Ade, His, Leu and Trp, 2 days
[6] = target: YFP^YN-fused EDR1 (Arabidopsis thaliana) (UniProt Q9FPR3); assay: split reporter; BiFC: YFP^YN and YFP^YC fusions co-expressed in N. benthamiana by Agrobacterium; YFP fluorescence by confocal microscopy after 48 hours

Molecule: EDR1 N-terminal domain expressed in N. benthamiana (from UniProt Q9FPR3 1-657) (domain or fragment)
binding [1]: binds
binding [2]: binds

Molecule: EDR1-Flag in transgenic Arabidopsis (from UniProt Q9FPR3 1-933)
binding [4]: binds

B1: MKK2 fused to the Gal4 transactivation domain (protein, UniProt Q9S7U9 1-363)
chain: MKKGGFSNNLKLAIPVAGEQSITKFLTQSGTFKDGDLRVNKDGVRIISQLEPEVLSPIKPADDQLSLSDLDMVKVIGKGSSGVVQLVQHKWTGQFFALKVIQLNIDEAIRKAIAQELKINQSSQCPNLVTSYQSFYDNGAISLILEYMDGGSLADFLKSVKAIPDSYLSAIFRQVLQGLIYLHHDRHIIHRDLKPSNLLINHRGEVKITDFGVSTVMTNTAGLANTFVGTYNYMSPERIVGNKYGNKSDIWSLGLVVLECATGKFPYAPPNQEETWTSVFELMEAIVDQPPPALPSGNFSPELSSFISTCLQKDPNSRSSAKELMEHPFLNKYDYSGINLASYFTDAGSPLATLGNLSGTFSV
binding [3]: no binding

B7: MKK1 fused to the Gal4 transactivation domain (protein, UniProt Q94A06 1-354)
chain: MNRGSLCPNPICLPPLEQSISKFLTQSGTFKDGDLRVNKDGIQTVSLSEPGAPPPIEPLDNQLSLADLEVIKVIGKGSSGNVQLVKHKLTQQFFALKVIQLNTEESTCRAISQELRINLSSQCPYLVSCYQSFYHNGLVSIILEFMDGGSLADLLKKVGKVPENMLSAICKRVLRGLCYIHHERRIIHRDLKPSNLLINHRGEVKITDFGVSKILTSTSSLANSFVGTYPYMSPERISGSLYSNKSDIWSLGLVLLECATGKFPYTPPEHKKGWSSVYELVDAIVENPPPCAPSNLFSPEFCSFISQCVQKDPRDRKSAKELLEHKFVKMFEDSDTNLSAYFTDAGSLIPPLAN
binding [3]: no binding

Next, values leading:

binding [3]: no binding
Molecule: MPK6 fused to the Gal4 transactivation domain (from UniProt Q39026 1-395)

binding [5]: binds
binding [3]: binds
B2: MKK4 fused to the Gal4 transactivation domain (protein, UniProt O80397 1-366)
chain: T1 sequence

binding [6]: binds
B3: YFP^YC-fused MKK4 (protein, UniProt O80397 1-366)
chain: T1 sequence

binding [3]: no binding
B4: MPK3 fused to the Gal4 transactivation domain (protein, UniProt Q39023 1-370)
chain: MNTGGGQYTDFPAVETHGGQFISYDIFGSLFEITSKYRPPIIPIGRGAYGIVCSVLDTETNELVAMKKIANAFDNHMDAKRTLREIKLLRHLDHENIIAIRDVVPPPLRRQFSDVYISTELMDTDLHQIIRSNQSLSEEHCQYFLYQLLRGLKYIHSANIIHRDLKPSNLLLNANCDLKICDFGLARPTSENDFMTEYVVTRWYRAPELLLNSSDYTAAIDVWSVGCIFMELMNRKPLFPGKDHVHQMRLLTELLGTPTESDLGFTHNEDAKRYIRQLPNFPRQPLAKLFSHVNPMAIDLVDRMLTFDPNRRITVEQALNHQYLAKLHDPNDEPICQKPFSFEFEQQPLDEEQIKEMIYQEAIALNPTYG

binding [5]: binds
binding [3]: binds
B5: MKK5 fused to the Gal4 transactivation domain (protein, UniProt Q8RXG3 1-348)
chain: T2 sequence

binding [6]: binds
B6: YFP^YC-fused MKK5 (protein, UniProt Q8RXG3 1-348)
chain: T2 sequence
